Laboratory results as given in the supplement of paper PMC4166925.
± gives the standard deviation of the averaged measurements. Over roughly 33,000 sequences, “E-score (dimensionless, -0.5 to 0.5)” has its median near -0.049; the highest 2% begin near 0.37. This is one part of the list.

The sequences below were run on T1, PmTbr T-box DNA-binding domain (GST fusion) (assay: PBM E-score of 8-mer (E-score (dimensionless, -0.5 to 0.5)); Tbr is Tbrain of the sea star Patiria miniata (Pm) or the sea urchin Strongylocentrotus purpuratus (Sp); higher = stronger binding preference; most listed sequences are background and not binding sites). Details: the construct has about 5 more residues each side.
T1 sequence: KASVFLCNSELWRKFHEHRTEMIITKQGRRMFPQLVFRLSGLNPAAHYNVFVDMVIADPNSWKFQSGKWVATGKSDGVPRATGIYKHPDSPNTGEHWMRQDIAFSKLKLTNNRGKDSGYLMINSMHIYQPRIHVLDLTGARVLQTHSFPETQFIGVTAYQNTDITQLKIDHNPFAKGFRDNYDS
Method in brief: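 Primer extension turned Universal Agilent oligonucleotide arrays double-stranded. They were incubated with 200 nM protein in PBS (pH 7.5); the protein was a GST-fused Tbr T-box DNA-binding domain expressed in BL21 E. coli at 20 °C and purified on glutathione. Every ungapped 8-mer was scored from the scanned, quantified probe intensities, and the Universal PBM Analysis Suite gave each an enrichment E-score averaged over duplicate arrays.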

Sequence | PBM E-score of 8-mer
CTCGTGGC | -0.0288 ± 0.011
CCCCGATA | -0.0781 ± 0.02
AGTCTATC | -0.0746 ± 0.075
CCCTTAAG | -0.00471 ± 0.02
AACGGCCT | -0.156 ± 0.042
CCTAAGTA | -0.102 ± 0.017
AGTTAGAA | -0.109 ± 0.059
CCGGTGTA | 0.0868 ± 0.027
ACTCGTAC | -0.0781 ± 0.05
GGCTAACA | 0.179 ± 0.019
CCAACTGG | -0.0956 ± 0.052
ATTAACTA | -0.0228 ± 0.0034
ATACCGAC | 0.0515 ± 0.0048
ATTAATGG | -0.0771 ± 0.017
ATATACCA | -0.0136 ± 0.064
GCTGAGTA | -0.166 ± 0.026
TAGGTGGA | 0.242 ± 0.057
CCATATAG | -0.37 ± 0.054
GGATCATA | -0.188 ± 0.072
AAATATAC | -0.257 ± 0.003
AACTAGTT | 0.101 ± 0.067
GTTCTCCA | -0.253 ± 0.017

Sequence | PBM E-score of 8-mer
CGACCAAA | -0.223 ± 0.0098
CGTATGGA | -0.16 ± 0.033
CAGACGAC | -0.0531 ± 0.0077
ACGTTAGA | -0.0684 ± 0.046
CAAACGCC | -0.0331 ± 0.066
AAGTCACA | 0.235 ± 0.036
GGTTCCCA | -0.183 ± 0.01
GGAATGAC | -0.107 ± 0.007
CGCCGTTA | -0.0338 ± 0.013
GTCACGAC | 0.155 ± 0.035
ATAACCAC | -0.171 ± 0.055
CCCAACAG | -0.0404 ± 0.015
ATTGGAGC | -0.104 ± 0.081
AAATCAGT | -0.119 ± 0.037
ATGTCTAA | -0.0964 ± 0.062
AGTGATAC | 0.227 ± 0.05
GAACAGGA | -0.101 ± 0.0082
CCTCCACA | 0.233 ± 0.021
CAAGTTGC | 0.302 ± 0.016
GTGCCTTA | -0.133 ± 0.015
AGTACCTC | -0.0546 ± 0.076
GTTTAACA | 0.26 ± 0.034

Sequence | PBM E-score of 8-mer
GGCTTCCC | -0.112 ± 0.017
AGGTCGAT | 0.028 ± 0.019
GATACGAC | 0.185 ± 0.076
ACTCTTAG | -0.0903 ± 0.065
GATCTCCA | -0.0926 ± 0.045
GAACCAAC | 0.0193 ± 0.17
ATCCGCCA | -0.129 ± 0.013
GATATCGA | 0.0463 ± 0.052
ACGTTCAT | -0.137 ± 0.018
GACACCCA | 0.388 ± 0.032
GGGCCAGA | -0.346 ± 0.022
AAGAATCT | -0.162 ± 0.052
AAACCGTC | -0.061 ± 0.017
ACGTAAAC | -0.00515 ± 0.00069
TACTTCGA | -0.0351 ± 0.02
AATGCTAT | -0.0672 ± 0.063
GGGCTAGA | -0.158 ± 0.019
ACTCCTCC | 0.0678 ± 0.078
AGGCATGA | -0.257 ± 0.074
TCGAAAAA | 0.0243 ± 0.028
AAGCCTCA | -0.0667 ± 0.04
TCTCCTAA | -0.0987 ± 0.12

Sequence | PBM E-score of 8-mer
AACAGCGC | 0.0979 ± 0.039
GGTTCCAA | -0.241 ± 0.027
ACAACTAG | -0.0136 ± 0.00076
CAAATGCC | -0.0299 ± 0.045
CCGAGCGA | -0.248 ± 0.075
GGGATAAC | 0.0683 ± 0.057
AATAGGCT | -0.164 ± 0.087
AAGACCCG | 0.00743 ± 0.084
CTAATTGC | 0.0265 ± 0.0087
CAGCGCCC | -0.0103 ± 0.094
GTCGGCAA | -0.0341 ± 0.011
CCTGTTGC | 0.143 ± 0.039
GGGTCTCA | 0.05 ± 0.034
AGCTGCAA | 0.0727 ± 0.0037
ACCGACTA | -0.0378 ± 0.056
GACCCCGA | -0.192 ± 0.054
GGGTGGAC | -0.178 ± 0.027
CGATTTGA | 0.0366 ± 0.12
GAACTCCC | -0.13 ± 0.012
ACTTTATC | 0.0678 ± 0.072
